Reference: PubChem BioAssay AID488969 (Vanderbilt High Throughput Screening Facility, 2010)
Whole data set: some 110,000 compounds, median “z-score” near -0.1, cut for the highest 2% near 2. Some of the results follow. The source made the active and inactive calls.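 How the source made its calls: active means z-score in the third read window above 3 or below -3; inactive means the rest.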

The compounds below were run against Metabotropic glutamate receptor 8 (Rattus norvegicus) (UniProt P70579) (assay: rat mGluR8 modulators via GIRK flux, primary screen, cell-based, thallium flux, HTS (AID 488969)). Details: HEK293 rat mGluR8, GIRK (G protein-gated inwardly rectifying potassium channel) thallium flux, FluoZin2; at 10 µM; stronger effect = higher value; submaximal glutamate (EC20) added with thallium.
Sequence of UniProt P70579 (P70579 whole entry, looked up): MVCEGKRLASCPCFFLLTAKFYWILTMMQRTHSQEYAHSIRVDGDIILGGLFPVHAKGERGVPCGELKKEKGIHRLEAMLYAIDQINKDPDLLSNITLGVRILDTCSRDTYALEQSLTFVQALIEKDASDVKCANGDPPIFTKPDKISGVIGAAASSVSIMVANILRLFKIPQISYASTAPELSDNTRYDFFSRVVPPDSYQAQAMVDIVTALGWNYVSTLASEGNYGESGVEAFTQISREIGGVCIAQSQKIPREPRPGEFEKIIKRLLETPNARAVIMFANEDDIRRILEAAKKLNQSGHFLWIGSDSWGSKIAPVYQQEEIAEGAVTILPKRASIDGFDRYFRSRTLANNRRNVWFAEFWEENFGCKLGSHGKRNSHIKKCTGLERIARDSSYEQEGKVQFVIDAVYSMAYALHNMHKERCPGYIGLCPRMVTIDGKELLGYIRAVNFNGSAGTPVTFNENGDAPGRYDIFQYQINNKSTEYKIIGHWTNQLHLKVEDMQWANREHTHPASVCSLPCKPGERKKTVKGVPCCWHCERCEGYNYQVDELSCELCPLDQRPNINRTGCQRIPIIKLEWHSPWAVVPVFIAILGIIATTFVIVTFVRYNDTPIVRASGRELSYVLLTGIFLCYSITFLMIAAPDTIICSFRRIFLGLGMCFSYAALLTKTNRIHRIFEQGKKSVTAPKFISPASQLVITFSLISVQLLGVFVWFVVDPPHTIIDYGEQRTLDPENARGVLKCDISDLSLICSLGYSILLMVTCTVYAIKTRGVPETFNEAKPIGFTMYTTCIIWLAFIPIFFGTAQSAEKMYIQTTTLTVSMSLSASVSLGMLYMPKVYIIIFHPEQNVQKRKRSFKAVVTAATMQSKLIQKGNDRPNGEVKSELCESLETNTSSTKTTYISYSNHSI

SMILES | z-score
CCC(C)Nc1nc2c(c(=O)n(C)c(=O)n2C)n1Cc1cccc(C)c1 (stereo not given) | -0.578
CCOC(=O)c1ccccc1NC(=O)c1cc2sccc2n1C | -0.139
COc1ccc(N(CC(=O)NCc2cccc(OC)c2)S(=O)(=O)c2c(C)noc2C)cc1 | -0.199
Nc1c(-c2ccc(Cl)cc2)cnn1-c1cccc(C(F)(F)F)c1 | -0.222
O=C(Nc1ccc([N+](=O)[O-])cn1)c1cc(-c2cccc(Cl)c2)nc2ccccc12 | -0.658
CCOc1ccc(OCC)c(NC(=O)CN2CCN(CC)CC2)c1 | 0.18
COc1cccc(OCCNC(=O)c2cccc(OC)c2)c1 | 0.309
CC(C)c1nc(N2CCOCC2)c(C#N)c2c1CCCC2 | active: 6.82
N/C(=N\c1nc2c(c(=O)[nH]1)CCCC2)Nc1ccccc1Sc1ccccc1 | 0.0985
O=C(O)c1cn(-c2ccccc2)nc1C(=O)O | 1.18
O=C1C2C3CCC(C3)C2C(=O)N1CNc1ccc(F)cc1 (stereo not given) | 0.026
COc1ccc(NS(=O)(=O)c2cccc(C(=O)N/N=C/c3cccs3)c2)cc1 | -0.428
Nc1nncn1C(=O)CCCN1C(=O)c2ccccc2C1=O | 0.0919
O=C(N/C(=C\c1cccs1)C(=O)N1CCCCCC1)c1ccccc1 | -0.369
Cc1cc(C)nc(Sc2c(C)n[nH]c2C)n1 | -0.38
Cc1nc(NC(=O)/C=C/c2ccc(C(C)(C)C)cc2)sc1C(=O)N(C)C | -0.097
O=C(c1cc(-c2ccccn2)nc2c(Cl)cccc12)N1CCN(C(=O)C2CCCO2)CC1 (stereo not given) | -1.12
Cc1cc(C)n(CCc2nc3c4ccccc4n(CC#N)c(=O)n3n2)n1 | 0.14
O=C(Nc1nnc(-c2ccccc2F)s1)C1CCN(S(=O)(=O)c2ccc(Cl)cc2)CC1 | -0.468
Cn1c(C(=O)N2CCCC(C(=O)NCCCc3ccccc3)C2)cc2sccc21 (stereo not given) | -1.12
CC(=O)c1cc2c(cc1NC(=O)CN1CCCCCC1)OCO2 | 0.469
COC(=O)NCc1cccc(CNC(=O)OC)c1 | -0.227
O=C(c1cc([N+](=O)[O-])ccc1Cl)N1c2ccccc2Sc2ccccc21 | -0.86
CCN(CC)S(=O)(=O)c1cc(C(=O)O)ccc1Cl | -0.121
COc1ccc(S(=O)(=O)N(C)c2ccc(C(=O)N3CCOCC3)cc2)cc1 | -0.148
Cc1ccc(N(CC(=O)N/N=C/c2ccc(OC3CSC3)cc2)S(=O)(=O)c2ccccc2)cc1 | 1.24
COc1cccc(/C=N/Nc2nc(Nc3ccccc3)nc(-n3nc(C)cc3C)n2)c1O | -0.216
CC1CCc2sc(C(=O)NN=C3CCC(c4ccccc4)CC3)cc2C1 (stereo not given) | -0.195

SMILES | z-score
COC(=O)C(NC(C)=O)(Nc1nc(C)cs1)C(F)(F)F (stereo not given) | -0.288
O=C(NCC(=O)N(Cc1cccs1)C(C(=O)NC1CCCCC1)c1ccco1)c1cccs1 (stereo not given) | -0.518
CN1CCn2c1nc(N1CCOCC1)nc2=O | -0.213
COCCCN1CCc2[nH]c(=S)[nH]c(=O)c2C1 | 0.0422
CCc1cc(=O)oc2c(C)c(O)c(CN(C)C)cc12 | 0.82
CC(c1ccco1)N(C(=O)Nc1ccc(Cl)cc1)c1ccccn1 (stereo not given) | -0.277
CCOc1ccc(-n2c(-c3ccc(OC)cc3)c[n+]3c2CCCCC3)cc1 | -0.114
CC(C)CNC(=O)c1ccc(NC(=O)c2cccs2)cc1 | -0.183
CN(C)S(=O)(=O)c1cccc2nsnc12 | 0.268
Cc1ccc(C)c(S(=O)(=O)N2CCC(c3nc4c(nnn4Cc4ccc(F)cc4)c(=O)[nH]3)CC2)c1 | 0.0652
COc1ccc2c(c1)c(=O)oc1c(C)c(OCC(=O)N3CCc4ccccc4C3)ccc12 | -0.0949
O=C(c1ccc(C(F)(F)F)cc1)c1c[nH]c(C(=O)NCCCn2ccnc2)c1 | -0.111
CCOC(=O)NCc1ccc(Cl)c(Cl)c1 | 0.431
Cc1sc2nc(C3CC3)nc(SCC(=O)N3CCc4ccccc4C3)c2c1C | 1.45
O=C(O)C1CCCN(S(=O)(=O)c2ccc(Br)cc2)C1 (stereo not given) | -0.276
CCOC(=O)N1CCN(C(=O)c2ccc(Cn3c(=S)[nH]c4cc5c(cc4c3=O)OCO5)cc2)CC1 | -2.98
Cc1ccc(NC(=O)CC2C(=O)NC3CCCCC3N2C(=O)c2ccc(F)cc2)cc1C (stereo not given) | -0.212
COc1ccc(C(=O)Nc2cccc(C(=O)N3CCCC3)c2)cc1 | -0.286
O=c1cc(CSc2ccccc2)[nH]c(=S)[nH]1 | 0.601
COc1ccc(OC(C)C(=O)N2CCC(C)CC2)cc1 (stereo not given) | 0.926
O=C1CC2CS(=O)(=O)CC2N1C1CCCCC1 (stereo not given) | -0.11
O=C(c1c(F)cccc1F)N1CCC(O)(c2cccnc2)CC1 | -0.039
Cc1cc(NC(=O)CSc2nnc(C3CC3)n2Cc2ccccc2)no1 | -0.188
O=C(Nc1cccc(C(=O)N2CCOCC2)c1)c1cncc(Br)c1 | -0.0638
N#C/C(=C/c1ccccc1[N+](=O)[O-])C(=O)NCc1ccco1 | 0.294
COc1cccc(/C=N\NC(=O)c2sc(N)nc2C)c1OC | -0.0535
CCSc1nnc(-c2ccc(C)cc2)c2ccccc12 | -0.42
